Reference: PMC9630929 (Journal of medicinal chemistry, 2022)

Molecular target: His6-tagged second bromodomain of PBRM1 (PBRM1-BD2) (human, UniProt Q86U86 174-293)
Assay: AlphaScreen or HTRF

Chain of UniProt Q86U86 (Q86U86 174-293): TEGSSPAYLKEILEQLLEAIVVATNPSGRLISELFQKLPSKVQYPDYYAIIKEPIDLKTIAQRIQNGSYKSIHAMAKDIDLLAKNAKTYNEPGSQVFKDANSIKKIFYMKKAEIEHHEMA

B1: biotinylated H3K14Ac(1-20) peptide (peptide)
peptide: not shown
modifications: acetyl-lysine at K14; biotin on the added C-terminal lysine; C-terminal amide (CONH2); free N-terminus (NH2)
B1: binds.
